In article PMC4336329 (PLoS ONE, 2015):
The whole screen tested about 310,000 compounds, of which about 2,200 (0.71%) showed an effect of 50% or more. Effects have a minus sign here. The list shows a part of the results.

Each compound was assayed against human ether-à-go-go-related gene (hERG) potassium channel (human, UniProt Q12809) (assay: primary screen, population patch clamp on CHO cells stably expressing hERG).
human ether-à-go-go-related gene (hERG) potassium channel, sequence (Q12809 whole entry, looked up): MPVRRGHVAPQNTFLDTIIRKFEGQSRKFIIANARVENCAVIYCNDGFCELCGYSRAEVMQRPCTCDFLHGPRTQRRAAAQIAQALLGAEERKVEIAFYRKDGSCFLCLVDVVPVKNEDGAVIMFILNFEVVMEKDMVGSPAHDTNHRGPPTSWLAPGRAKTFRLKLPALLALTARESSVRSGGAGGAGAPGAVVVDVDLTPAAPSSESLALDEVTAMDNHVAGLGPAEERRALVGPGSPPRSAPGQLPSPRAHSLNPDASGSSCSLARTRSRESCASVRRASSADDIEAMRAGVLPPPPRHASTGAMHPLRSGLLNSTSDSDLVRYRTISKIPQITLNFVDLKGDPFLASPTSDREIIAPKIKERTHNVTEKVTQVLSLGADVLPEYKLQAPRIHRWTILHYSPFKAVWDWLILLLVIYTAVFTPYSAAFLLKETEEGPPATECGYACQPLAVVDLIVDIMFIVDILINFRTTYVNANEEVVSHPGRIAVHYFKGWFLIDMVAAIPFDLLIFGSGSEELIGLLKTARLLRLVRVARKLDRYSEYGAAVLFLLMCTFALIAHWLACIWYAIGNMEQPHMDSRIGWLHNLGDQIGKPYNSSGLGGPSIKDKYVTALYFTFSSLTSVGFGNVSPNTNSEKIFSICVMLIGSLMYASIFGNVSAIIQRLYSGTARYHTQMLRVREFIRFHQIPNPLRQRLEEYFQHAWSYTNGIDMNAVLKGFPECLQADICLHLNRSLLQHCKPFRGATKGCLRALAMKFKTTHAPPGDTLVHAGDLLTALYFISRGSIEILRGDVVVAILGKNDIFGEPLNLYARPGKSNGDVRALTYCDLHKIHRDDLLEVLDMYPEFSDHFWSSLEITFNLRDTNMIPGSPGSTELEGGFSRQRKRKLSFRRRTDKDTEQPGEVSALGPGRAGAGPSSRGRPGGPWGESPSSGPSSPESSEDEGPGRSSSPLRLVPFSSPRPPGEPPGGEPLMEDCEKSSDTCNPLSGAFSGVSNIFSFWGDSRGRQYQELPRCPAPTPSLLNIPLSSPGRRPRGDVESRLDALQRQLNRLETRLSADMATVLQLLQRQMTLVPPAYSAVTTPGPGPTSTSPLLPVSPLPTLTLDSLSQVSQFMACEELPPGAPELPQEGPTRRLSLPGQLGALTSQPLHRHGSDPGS

| Compound | hERG current change (%, negative = inhibition) at 1uM |
| --- | --- |
| COc1ccc2[nH]cc(/C=C(/C#N)S(=O)(=O)c3ccccc3)c2c1 | 7.93% |
| Clc1cncc(Cl)c1NNc1c2ccccc2nc2ccccc12 | 11.8% |
| O=C(CN1C(=O)NC2(CCCC2)C1=O)NNC(=O)c1ccc(F)cc1 | 18% |
| Cc1ccc(C(=O)Nc2ccccc2C(N)=O)o1 | -3.84% |
| CCOC(=O)CCc1c(C)nc2cc(-c3ccc(F)cc3)[nH]n2c1=O | 8.2% |
| COc1cccc(/C=N\NC(=O)c2cc(OCC(F)(F)F)ccc2OCC(F)(F)F)c1 | 7.83% |
| O=P(CCNCc1ccco1)(c1ccccc1)c1ccccc1 | 8.04% |
| CC(NCC(=O)NC(=O)NC1CCCC1)c1ccc(Cl)cc1Cl (stereo not shown) | -10.2% |
| Clc1ccc(Cl)c2sc(N3CCOCC3)nc12 | 10.1% |
| CCCCSc1c(C)c2cc3c(cc2[nH]c1=O)OCO3 | 16% |
| CCC(C)Nc1nc(SC(C(C)=O)C(C)=O)nc(N(C)C)n1 (stereo not shown) | -6% |
| COc1ccc(Cn2c(O)c(/C=N/NC(=O)c3ccccc3O)c(=O)[nH]c2=O)cc1 | 1.81% |
| CC1CCN(CCCn2c(SCC(=O)NC3CCCC3)nc3ccccc3c2=O)CC1 | -64.8% |
| CC(Cc1ccccc1)[n+]1cc(/N=C(\[O-])N(C)C)on1.Cl (stereo not shown) | 3.62% |
| Cc1nn(C)c(Cl)c1CN1CCN(CC(C)C)C(CCO)C1 (stereo not shown) | 4.79% |
| Cc1csc(NC(=O)CSc2nc3ccccc3s2)n1 | 3.48% |
| O=c1c2c([N+](=O)[O-])cc([N+](=O)[O-])cc2sn1Cc1ccccc1 | 18.8% |
| CCc1cccc(C)c1NC(=O)CN(C)S(=O)(=O)c1ccc(-c2ccc(=O)[nH]n2)s1 | -1.3% |
| CC(=O)Nc1ccc2nc(NC(=O)c3cccs3)sc2c1 | 12.8% |
| Cc1ccnc(Sc2ccc([N+](=O)[O-])cc2[N+](=O)[O-])n1 | 11.5% |
| CCOCCCNCC(=O)NCC1CCCCC1.O=C(O)C(=O)O | 22.2% |
| c1ccc(CN2CCC(Nc3nc(-c4cccs4)nc4ccccc34)CC2)cc1 | 10.5% |

| Compound | hERG current change (%, negative = inhibition) at 1uM |
| --- | --- |
| COc1cccc(CNC(=O)CCNC(=O)Cn2ccc3ccccc3c2=O)c1 | 8.94% |
| COc1ccc(C(=O)C2CCCN(Cc3c(F)ccc(F)c3F)C2)c(OC)c1 (stereo not shown) | 9.24% |
| C/C(CS(=O)(=O)c1ccc(Cl)cc1)=N/NC(N)=S | -5.64% |
| Cc1nc(NC(=O)/C=C/c2ccccc2)sc1C(=O)Nc1ccccc1Cl | 16.3% |
| COc1ccc(C(CC(=O)N2CCC3(CC2)OCCO3)NS(=O)(=O)c2ccc(C)cc2)cc1 (stereo not shown) | 6.54% |
| CCCCNC(=O)NS(=O)(=O)c1ccc(NS(=O)(=O)c2ccccc2)cc1 | 14.2% |
| NC(=O)c1ccc(NC(=O)CN2CCN(C(=O)c3ccco3)CC2)cc1 | -1.81% |
| COC(=O)COc1ccc2oc(=O)cc(-c3cc4ccccc4o3)c2c1 | 11.2% |
| COc1ccc(CN(C)C(=O)CCc2ccc(S(=O)(=O)N3CCCCCC3)cc2)c(OC)c1 | -3.94% |
| COC(=O)C1=C(c2cccc(OCc3ccccc3)c2)C[C@@H]2CC[C@H]1N2C(=O)NCc1ccc(OC)cc1 | 14.3% |
| Cc1cc2c(=O)n(CC(=O)N3CCN(c4ccc(F)cc4)CC3)cnc2s1 | 5.2% |
| COc1ccc(NCC(=O)Nc2cc(S(=O)(=O)N3CCOCC3)ccc2N2CCOCC2)c(OC)c1 | -3.27% |
| N#Cc1c2c(c(Nc3ccc(O)cc3)n3c1nc1ccccc13)CCC2 | 11.7% |
| CC(=O)Nc1ccc(C(=O)OCC(=O)Nc2ccccc2F)cc1 | 6.13% |
| Nc1ccc(C(=O)c2cccs2)cc1[N+](=O)[O-] | 15.8% |
| CCCCC(CC)COCCCN=Cc1c(O)[nH]c(=S)[nH]c1=O (stereo not shown) | 6.19% |
| CCOC(=O)c1cccc(NS(=O)(=O)c2c(C)[nH]c(C)c2C(=O)N2CCCC2)c1 | 16.6% |
| O=C(C1CCCO1)N1CCN(C(=S)Nc2cc(F)cc(F)c2)CC1 (stereo not shown) | 11.4% |
| CCOC(=O)C(=O)NC(C)c1ccccc1 (stereo not shown) | 10.1% |
| CC(C)c1nnc(NC(=O)c2sc3ccccc3c2Cl)s1 | 9.11% |
| O=C(COc1ccccc1F)Nc1ccc(S(=O)(=O)NCc2ccco2)cc1 | 7.73% |
| CCc1nccn1S(=O)(=O)c1cccc([N+](=O)[O-])c1 | 11.9% |

| Compound | hERG current change (%, negative = inhibition) at 1uM |
| --- | --- |
| Cc1c(CCOC(=O)c2cccc([N+](=O)[O-])c2)sc[n+]1CC(=O)c1ccccc1.[Br-] | 6.58% |
| O=C(O)CCSCCCN1C(=O)c2cccc3cccc(c23)C1=O | 19.6% |
| CCOC(=O)c1c(NC(=O)CSc2nnc(C)c(=O)[nH]2)sc(C)c1C | 9.28% |
| Cc1cc2n(n1)SC(Nc1cc(Cl)ccc1Cl)N2 (stereo not shown) | 7.4% |
| Cc1c(Br)c([N+](=O)[O-])nn1CC(=O)Nc1nccs1 | 9.21% |
| CC(=O)c1cc(C#N)c(SCc2ccccn2)nc1C | 5.89% |
| O=C(Cn1cnc2c(nnn2Cc2ccc(F)cc2)c1=O)NCC1CCCO1 (stereo not shown) | 4.73% |
| CCC(C)NC(=O)C1c2ccccc2Oc2ccccc21 (stereo not shown) | 6.03% |
| Cc1cc(C)c(S(=O)(=O)c2cc(F)ccc2C)c(=O)[nH]1 | 16.1% |
| O=C(N/N=C\c1cccnc1)C1c2ccccc2Oc2ccccc21 | 13.2% |
| Cn1c(SCC(=O)NCc2ccc3c(c2)OCO3)nnc1-c1cccs1 | 3.56% |
| Cc1ccc(-c2nnc(N3CCOCC3)c3ccccc23)cc1S(=O)(=O)NCc1cccnc1 | 12.3% |
| O=C(OCC#CCSc1nnc(-c2ccc([N+](=O)[O-])cc2)o1)c1cccs1 | 0.565% |
| Cc1[nH]c2ccccc2c1C(=O)/C=C\c1ccccc1Cl | 17.4% |
| COC(=O)Cc1ccc2oc(-c3cccnc3)nc2c1 | 10.9% |
| O=C(CN1C(=O)NC2(CCCC2)C1=O)OCc1ccc(Cl)cc1Cl | -1.09% |
| O=C(NC1CCN(Cc2ccc3ccccc3c2)CC1)c1ccccc1 | -10.2% |
| O=C(NS(=O)(=O)c1ccc(Cl)cc1)c1ccccc1 | 11.9% |
| Cc1ccc(C(=O)c2coc3ccc(O)cc23)cc1 | 9.21% |
| CCCSc1oc(-c2ccco2)nc1S(=O)(=O)c1ccc(C)cc1 | 21.3% |
| CC(C)NC(=O)NC(=O)COC(=O)c1ccc(NC(=O)CC#N)cc1 | 5.06% |
| CN(Cc1ccccc1)S(=O)(=O)c1ccc(C(=O)Nc2nnc(C3CC3)o2)cc1 | 1.93% |

| Compound | hERG current change (%, negative = inhibition) at 1uM |
| --- | --- |
| O=C(Nc1ccnn1C1CCN(Cc2cccc(F)c2F)CC1)C1CCCC1 | 8% |
| CCCCNC(=O)CSc1nc2cc(OC)c(OC)cc2c(=O)n1Cc1ccc(OC)cc1 | 4.01% |
| Cn1cnc([N+](=O)[O-])c1Sc1nc2ccccc2[nH]1 | 2.24% |
| O=C(c1ccc(Br)cc1)N(C1=NCCCCS1)c1ccccc1 | -2.59% |
| C/C=C(\C)CN1CCC(n2nccc2NC(=O)CCOc2ccccc2)CC1 | 10.8% |
| CCOCCCNC(=O)CCc1ccc(S(=O)(=O)Nc2ccc(C)cc2)cc1 | 17.5% |
| COc1ccc2nc(NC(=O)C3CCN(S(=O)(=O)c4cccc5nsnc45)CC3)sc2c1 | 10.5% |
| O=C(O)CCN1C(=O)S/C(=C\c2cccnc2)C1=O | 11.4% |
| COc1ccc(-c2csc(NC(=O)CSc3nc(C)nc4sc(C(=O)O)c(C)c34)n2)cc1 | 6.07% |
| O=C(c1ccccc1)C(c1ccccc1)c1ccccc1 | 6.7% |
| COCCn1c(C)cc(/C=C(\C#N)C(=O)OCC(=O)N(C)c2c(N)n(Cc3ccccc3)c(=O)[nH]c2=O)c1C | 13.6% |
| COc1ccc(Cl)cc1NC(=O)C(=O)NCc1ccncc1 | 6.36% |
| CN(C(=O)COC(=O)c1cn(C)c2ccccc12)C1CCCCC1 | 15.7% |
| Cc1ccc(NC(=O)CC2CS(=O)(=O)CC2CC(=O)Nc2ccc(C)c(C)c2)cc1C (stereo not shown) | 3.74% |
| Cc1ccc(S(=O)(=O)NCC(=O)NCc2cc(=O)n(C)c(=O)n2C)cc1 | 42.4% |
| FC(F)(F)c1cccc(N2CCN(CC3CC=CCC3)CC2)c1 (stereo not shown) | 14.3% |
| O=C(NNc1ccccc1)C(=O)NNS(=O)(=O)c1ccc(CCCl)cc1 | 6.46% |
| Cc1ccc(Nc2ncccc2C(N)=O)cc1 | 6.06% |
| CCC(C(=O)Nc1ccccc1)c1ccccc1 (stereo not shown) | 6.6% |
| O=C(NCc1ccncc1)C(=O)NCC(c1ccco1)N1CCN(c2ccc(F)cc2)CC1 (stereo not shown) | -0.429% |
| O=C(NC(=S)N1CCOCC1)c1ccc(F)cc1 | 20.8% |
| Cc1ccc(OCCNc2cc(N3CCN(CCO)CC3)ccc2[N+](=O)[O-])cc1C | 13% |
